# Source: the supplement of paper PMC8728848
# This is one part of the list.
# B1: Lam16A (Thermotoga maritima), Q9WXN1 (protein)
# chain: EQINNGTFDEPIVNDQANNPDEWFIWQAGDYGISGARVSDYGVRDGYAYITIADPGTDTWHIQFNQWIGLYRGKTYTISFKAKADTPRPINVKILQNHDPWTNYFAQTVNLTADWQTFTFTYTHPDDADEVVQISFELGEGTATTIYFDDVTVSPQ
# What was measured:
# Experiment in all cases: glycan array binding signal (z-score within array); higher = stronger binding
# Settings in all cases: glycan notation: IUPAC condensed, linker removed
# [1] = molecular target: Glc(b1-4)Glc(b1-4)Glc(b1-3)Glc(b1-4)Glc(b1-4)Glc(b1-3)Glc
# Procedure, shortened: (§1)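 The binding signal is a Z-score computed within each array and averaged over linkers. Arrays of the same protein sequence at different concentrations or buffers were also averaged together. Data originate from 3228 arrays in the Consortium for Functional Glycomics database, kept only where the protein sequence was available.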
# [2] = molecular target: Glc(b1-4)Glc(b1-4)Glc(b1-4)Glc
# Procedure, shortened: as §1
# [3] = molecular target: Glc(b1-4)Glc(b1-4)Glc(b1-4)Glc(b1-3)Glc
# Procedure, shortened: as §1
# [4] = molecular target: Glc(b1-4)Glc(b1-4)Glc(b1-4)Glc(b1-4)Glc
# Procedure, shortened: as §1
# [5] = molecular target: Glc(b1-4)Glc(b1-4)Glc(b1-4)Glc(b1-4)Glc(b1-4)Glc
# Procedure, shortened: as §1
# [6] = molecular target: Glc(b1-4)Glc(b1-4)Glc(b1-4)Glc(b1-4)Glc(b1-4)Glc(b1-4)Glc
# Procedure, shortened: as §1
# [7] = molecular target: Glc(b1-4)Glc(b1-4)Glc(b1-4)Glc(b1-4)Glc(b1-4)Glc(b1-4)Glc(b1-4)Glc
# Procedure, shortened: as §1
# [8] = molecular target: Glc(b1-4)Glc(b1-4)Glc(b1-4)Glc(b1-4)Glc(b1-4)Glc(b1-4)Glc(b1-4)Glc(b1-4)Glc
# Procedure, shortened: as §1
# [9] = molecular target: Glc(b1-4)Glc(b1-4)Glc(b1-4)Glc(b1-4)Glc(b1-4)Glc(b1-4)Glc(b1-4)Glc(b1-4)Glc(b1-4)Glc
# Procedure, shortened: as §1
# [10] = molecular target: Glc(b1-4)Glc(b1-4)Glc(b1-4)Glc(b1-4)Glc(b1-4)Glc(b1-4)Glc(b1-4)Glc(b1-4)Glc(b1-4)Glc(b1-4)Glc
# Procedure, shortened: as §1
# [11] = molecular target: Glc(b1-4)Glc(b1-4)Glc(b1-4)Glc(b1-4)Glc(b1-4)Glc(b1-4)Glc(b1-4)Glc(b1-4)Glc(b1-4)Glc(b1-4)Glc(b1-4)Glc
# Procedure, shortened: as §1
# [12] = molecular target: Glc(b1-4)Glc(b1-4)Glc(b1-4)Glc(b1-4)Glc(b1-4)Glc(b1-4)Glc(b1-4)Glc(b1-4)Glc(b1-4)Glc(b1-4)Glc(b1-4)Glc(b1-4)Glc
# Procedure, shortened: as §1
# [13] = molecular target: Glc(b1-6)Glc
# Procedure, shortened: as §1
# [14] = molecular target: Glc(b1-6)Glc(b1-6)Glc
# Procedure, shortened: as §1
# [15] = molecular target: Glc(b1-6)Glc(b1-6)Glc(b1-6)Glc
# Procedure, shortened: as §1
# [16] = molecular target: Glc(b1-6)Glc(b1-6)Glc(b1-6)Glc(b1-6)Glc
# Procedure, shortened: as §1
# [17] = molecular target: Glc(b1-6)Glc(b1-6)Glc(b1-6)Glc(b1-6)Glc(b1-6)Glc
# Procedure, shortened: as §1
# [18] = molecular target: Glc(b1-6)Glc(b1-6)Glc(b1-6)Glc(b1-6)Glc(b1-6)Glc(b1-6)Glc
# Procedure, shortened: as §1
# [19] = molecular target: Glc(b1-6)Glc(b1-6)Glc(b1-6)Glc(b1-6)Glc(b1-6)Glc(b1-6)Glc(b1-6)Glc
# Procedure, shortened: as §1
# [20] = molecular target: Glc(b1-6)Glc(b1-6)Glc(b1-6)Glc(b1-6)Glc(b1-6)Glc(b1-6)Glc(b1-6)Glc(b1-6)Glc
# Procedure, shortened: as §1
# [21] = molecular target: Glc(b1-6)Glc(b1-6)Glc(b1-6)Glc(b1-6)Glc(b1-6)Glc(b1-6)Glc(b1-6)Glc(b1-6)Glc(b1-6)Glc
# Procedure, shortened: as §1
# [22] = molecular target: Glc(b1-6)Glc(b1-6)Glc(b1-6)Glc(b1-6)Glc(b1-6)Glc(b1-6)Glc(b1-6)Glc(b1-6)Glc(b1-6)Glc(b1-6)Glc
# Procedure, shortened: as §1
# [23] = molecular target: Glc(b1-6)Glc(b1-6)Glc(b1-6)Glc(b1-6)Glc(b1-6)Glc(b1-6)Glc(b1-6)Glc(b1-6)Glc(b1-6)Glc(b1-6)Glc(b1-6)Glc
# Procedure, shortened: as §1
# [24] = molecular target: Glc(b1-6)Glc(b1-6)Glc(b1-6)Glc(b1-6)Glc(b1-6)Glc(b1-6)Glc(b1-6)Glc(b1-6)Glc(b1-6)Glc(b1-6)Glc(b1-6)Glc(b1-6)Glc
# Procedure, shortened: as §1
# [25] = molecular target: Man(b1-4)Man(b1-4)Man(b1-4)Man
# Procedure, shortened: as §1
# [26] = molecular target: Man(b1-4)Man(b1-4)Man(b1-4)Man(b1-4)Man
# Procedure, shortened: as §1
# [27] = molecular target: Man(b1-4)Man(b1-4)Man(b1-4)Man(b1-4)Man(b1-4)Man
# Procedure, shortened: as §1
# [28] = molecular target: Xyl(b1-4)Xyl(b1-4)Xyl(b1-4)Xyl(b1-4)Xyl
# Procedure, shortened: as §1
# [29] = molecular target: Xyl(b1-4)Xyl(b1-4)Xyl(b1-4)Xyl(b1-4)Xyl(b1-4)Xyl
# Procedure, shortened: as §1
binder,measurement,setting,value
B1,glycan array binding signal (z-score),[1],-0.301
same,glycan array binding signal (z-score),[2],-0.373
same,glycan array binding signal (z-score),[3],-0.373
same,glycan array binding signal (z-score),[4],-0.373
same,glycan array binding signal (z-score),[5],-0.373
same,glycan array binding signal (z-score),[6],-0.373
same,glycan array binding signal (z-score),[7],-0.373
same,glycan array binding signal (z-score),[8],-0.373
same,glycan array binding signal (z-score),[9],-0.373
same,glycan array binding signal (z-score),[10],-0.373
same,glycan array binding signal (z-score),[11],-0.365
same,glycan array binding signal (z-score),[12],-0.373
same,glycan array binding signal (z-score),[13],-0.373
same,glycan array binding signal (z-score),[14],-0.373
same,glycan array binding signal (z-score),[15],-0.373
same,glycan array binding signal (z-score),[16],-0.373
same,glycan array binding signal (z-score),[17],-0.373
same,glycan array binding signal (z-score),[18],-0.373
same,glycan array binding signal (z-score),[19],-0.373
same,glycan array binding signal (z-score),[20],-0.373
same,glycan array binding signal (z-score),[21],-0.373
same,glycan array binding signal (z-score),[22],-0.373
same,glycan array binding signal (z-score),[23],-0.373
same,glycan array binding signal (z-score),[24],-0.373
same,glycan array binding signal (z-score),[25],-0.373
same,glycan array binding signal (z-score),[26],-0.373
same,glycan array binding signal (z-score),[27],-0.373
same,glycan array binding signal (z-score),[28],-0.373
same,glycan array binding signal (z-score),[29],-0.373
